Test results published in the RNAGym collection of RNA variant scans (doi:10.7554/elife.90254).
The source gives no read counts; variants with many changes may rest on few reads.

B1: LINE1-mini (parent)
chain: GGCAGAGCUCAACACAGCGUGGCAAAGUGGCUGUGGCUAGACUGCC

Variants of: B1
Test: self-cleavage, relative activity (ratio to wild type); higher = more cleavage; in vitro, sequencing; the parent is a self-cleaving ribozyme

Variant | self-cleavage
GGUAGAGCUCAAGACAGCGUAGCAAAGUGGCUGAGGCUAGAAUGCC | 0.1
GGUAGAGCUACACACAGCGUGGCAAAGUGGCUGUGGCUAGACUCCC | 0.04
GGUAGAGCUAAAUACAGCGUGUCAAAGUGGCUGUGGCUAGACUACC | 0.04
GGUAGAGUUCAACACAGCGUGGCAAAGUGGCUUUGGGUAGACUGCC | 0.1
GGUAGAGCUCAAAACAGCGCGGCAACGUGUCUGUGUCUAGACUGCC | 0.09
GGUAGAGUUCAACACAGCGUGGCAAACUGACUGUGGCUAGACUGCC | 1.12
GGUAGAGCUCAAGACACCGUGGUACAGUGGCUGUGGCUAGACGGCA | 0.05
GGUAGAGCUUAACACAGCGAGGCGAAGUAGCUGUGGCUAGACUGGC | 0.07
GGUAGAGCUCAAUACAGCGUGGCAAAGAGGGUGUGGCUAGACUGCC | 0.05
GGUAGAGCUCAAGACAGCGUGGAAAAGUGGCUGUGGCUAGACUGCC | 0.16
GGUAGAGAUCAACACAGCGUGGCAAAGUGGCUGGGGCUAGACUGCC | 0.3
GGUAGAGUUCAACACAGCGUGGCAAAGUGGCUGUGGCUUGACUGCC | 0.07
GGUAGAGCUGAACACAGCGUGGCAAAGUGGCUAUGGCUAGACUGCC | 0.03
GGUAGAGCUGAACACAGCGUGGCAAAGUGGCUUUGGCUAGACUGCC | 0.01
GGUAGAGCUCAAAACAGCCUGGCAAAGUGGCUGUGGCUAGACUGCC | 0.03
GGUAGAGCUCAAAACAGCUUGGCAAAGUGGCUGUGGCUAGACUGCC | 0.06
GGUAGAGGUCAACACAGCGUGGCAAAGUGGCUGUGGCGAGACUGCC | 0.13
GGUAGAGCUCAAUUCAGCGUGGCAAAGUGGCUGUGACUAGACUGCC | 0.03
GGUAGAGCUCAACAUAACGUGGCAAAGUGGCUGUGGCUAGACUGCC | 0.09

Variant | self-cleavage
GGUAGAGCUCAAUACAGCUUGGGAAAGUGGCUGUGGGUAGACUGCC | 0.02
GGUAGAGCUCAAUACAGCGAGGCAAAGUGGCUGUGGCUAGACUGCC | 0.16
GGUAGAGCUAAACACAGCGAGGCAAAGUGGUUGUGGCUAGACUGCC | 0.06
GGUAGAGCUCAAUACAGCGUGGUAAAGCGGCUGUGGCUAGACUGCC | 0.12
GGUAGAGCUCAACAGAGCGUGGCAAAGUGGCUGUGGCUAUACUGCC | 0.02
GGUAGAGCUCAAGAUAGCGUGGCAAAGUGGCUGUUGCUAGACUGCA | 0.04
GGUAGAGCUCAACAGAGCGUGGCAAAGUGCCUGUGGCUAGACUGCC | 0.03
GGUAGAGCUCAACAAAGCGUGGCAAAGUGGCUGUGGCUAGACUGCA | 0.09
GGUAGAGAUCAACACAGCGUGGCAAAGUGGCUGUGGGUAGACUGCC | 0.22
GGUAGAGCUCAAGACAGAGUGGCAAAGUGACAGUGGCUAGACUGCC | 0.04
GGUAGAGCUCAACAGAGCGUGGCAUAGUGGCUGUUGCUAGAUUGCC | 0.02
GGUAGAGCUGAAAACAACGUGGCAAAGUGCCUGUGGCUAGACUGCC | 0.02
GGUAGAGAUCAACACAGCGUGGCAAAGUGGCUGUGCCUAAACUGCC | 0.08
GGUAGAGCUUAACACCGCGUGCCUAAGUGGUUGUGGCUCCACUGAC | 0.01
GGUAGAGGUCAACACAGCGUGGCAAAGUGGCUGUGGAUAGACUGCC | 0.13
GGUAGAGCUCAAAACAGCGUGGCAAAGUGGCUGUUGCUAAACUGCC | 0.09
GGUAGAGCUCAACAAAGCGUGGCAAAGUGGCUCUGGCUAGACUGCC | 0.06
GGUAGAGCUGAACACAGCGGGGCAAAGUGGCUUUGGCUAUACUUCC | 0.01
GGUAGAGUUCAACACAGCCUGGCAAAGUCGCUGAGGCUAGACUUCC | 0.05

Variant | self-cleavage
GGUAGAGCUCAACAAAGCGUGGCAAAGUGGCUGUUGCUAGACUGCC | 0.02
GGUAGAGUUCAACACAGCGUGGCAAAGUAGCUGUGGCUAGACUACC | 0.23
GGUAGAGCUCAACAAAGAGUGGCAAAGUAGCUGUGGCUAGACUGUC | 0.15
GGUAGAGCUCAACAAAGCGUGGCUAAGUGGCUGUCGCUAGACUGCC | 0.33
GGUAGAGCUAAACACAGCGUGGCAAAGUGGCUUUGGCUAGACUGCC | 0.05
GGUAGAGCUCAAAGCAGCGUGGCGACGUGGCUGUGGCUAGACUUCU | 0.06
GGUAGAGAUCAACACAGCGUGGCAAAGUGACUGUGGCUAGACUGCC | 0.22
GGUAGAGAUCAACACAGCGUGGCAAAGUGUCUGUGGCUAGACUGCC | 0.18
GGUAGAGUUCAACACAGCGUGGCAAAGUGGGAGGGGCUAGACUGCC | 0.23
GGUAGAGCUAAACACAGAUUGGCAACGUGGCCGUGGCUAGACCGCC | 0.02
GGUAGAGCUAAACACAGCGUGGCAACGUGGCUGUGGCUAUACUCCC | 0.02
GGUAGAGCUCAAAACAGCGUGGCAAAGUGGCUGCGGCUAUACUGCC | 0.08
GGUAGAGCUCAAUACAGCGUGGCAAAGCGGCUGUGUCUAGACUGCC | 0.27
GGUAGAGCUAAACACAGCGGGGCAAAGUUGCUGUGGCUAUACUGCC | 0.01
GGUAGAGCUAAACACAGCGUUGCAAAGUGGCUGUGGCUAGGCUGCC | 0.04
GGUAGAGCUAAACACAGCGUGUCAAAGUAGCUGUGGCUAGACUGCC | 0.02
GGUAGAGCUCAAUACAGCAUGGCCAAGUGGCUGUGUCUAUACUGCC | 0.11
GGUAGAGGUCAACACAGCGUGGCAAAGUAGCUGUGGCUAGACCGCC | 0.01
